Reference: the BET-seq Pho4 binding data (Le et al. 2018)
This is one part of the list. Values were computed here from the reads of four pooled replicates and scatter widely.

molecular target: T1, Pho4 (S. cerevisiae) (UniProt P07270); experiment: relative binding free energy (BET-seq); higher = weaker binding; conditions: reference: library average
T1 sequence: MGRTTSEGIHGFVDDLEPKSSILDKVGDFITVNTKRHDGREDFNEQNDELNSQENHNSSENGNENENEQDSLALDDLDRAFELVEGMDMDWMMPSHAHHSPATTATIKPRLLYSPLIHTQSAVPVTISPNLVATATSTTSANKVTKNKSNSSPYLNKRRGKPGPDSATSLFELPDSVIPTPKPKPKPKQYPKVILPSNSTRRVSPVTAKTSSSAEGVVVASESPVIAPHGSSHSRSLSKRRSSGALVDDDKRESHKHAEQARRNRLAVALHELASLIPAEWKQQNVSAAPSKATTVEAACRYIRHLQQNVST

Sequence	relative binding free energy [kcal/mol]
GTGCACACGTGTTAGG	0
GAAAGCACGTGGGATG	-0.14
AAAGTCACGTGGCTGG	0.02
CATTTCACGTGTTAAT	0.2
GAGGGCACGTGAAAGT	0.18
TACGTCACGTGATGTT	0.27
GTTGACACGTGGTGTA	0.07
CTTTACACGTGTTTTG	0
TGGGGCACGTGCGAGC	-0.13
ATTGTCACGTGGATAG	-0.06
GATGTCACGTGTATTG	0.11
GTTGACACGTGTGGGT	0.17
CATGGCACGTGGACGG	-0.06
CGGGACACGTGGAGTA	-0.02
ATCGTCACGTGGGGCT	-0.16
GCTGGCACGTGTTAAT	0.06
CTTGTCACGTGGGATA	-0.02
GCGTTCACGTGGGGAT	0.22
TAAGGCACGTGGGCTA	-0.26
TGAATCACGTGGGCCG	0.09
ATTTCCACGTGGTGGG	0.12
GTGTACACGTGCGCGG	-0.08
AAGGGCACGTGTGTTT	0

Sequence	relative binding free energy [kcal/mol]
GTATTCACGTGGCGTA	0.17
GGTTTCACGTGCGTCA	0.37
TCTTGCACGTGAAGTT	0.36
TCTTTCACGTGTTATA	0.21
GTGGTCACGTGATTGG	0.39
GTAAGCACGTGCTTTT	0.02
GATGACACGTGGTGGG	0.09
ATGTACACGTGTTTAT	-0.04
ATGGACACGTGGTGGG	-0.04
GAGCGCACGTGTTTTG	-0.1
GAGGTCACGTGAGTGA	0.24
AGCTTCACGTGGGTAT	0.12
ATGGTCACGTGTCCGT	0.19
AACAGCACGTGTGTTG	-0.03
TTGTGCACGTGGAGAA	-0.04
AGAGTCACGTGGACTG	0.12
CGTGTCACGTGTTGAG	0.18
AAAGTCACGTGATTGG	0.18
TATTGCACGTGGTGGG	-0.09
GTTAGCACGTGATGTA	0.1
GTAAGCACGTGGGGCC	-0.08
TTTGGCACGTGCTACG	-0.14
ATGAGCACGTGATGGG	0.08

Sequence	relative binding free energy [kcal/mol]
CTTGACACGTGGGGCT	-0.12
ACTGGCACGTGTTAGT	-0.23
GTATTCACGTGCTTTA	0.32
CTGGGCACGTGCTAGG	-0.25
GGTGTCACGTGCAGCG	0.1
CGAGCCACGTGAGGGG	0.05
TTAATCACGTGGTAGA	0.04
TAAGACACGTGTTCTT	0.15
TCTTTCACGTGAATTT	0.28
TGGGTCACGTGAGCTG	0.24
GTTGGCACGTGGTATG	-0.06
TGCTTCACGTGTTTAG	0.23
TATCTCACGTGGACGT	0.27
TCGGGCACGTGGGGCC	-0.08
TGGCGCACGTGCGGTT	-0.22
GAGCGCACGTGTATGG	0.1
TTAAACACGTGGTCGT	0.01
GGGTTCACGTGCATTA	0.34
GAAGACACGTGGTGAG	0.15
GGGCTCACGTGACGTG	0.33
GACATCACGTGTGGGG	0.25
GTTTACACGTGTAAGA	0.21
GCGGTCACGTGTAGTA	0.36

Sequence	relative binding free energy [kcal/mol]
TCATACACGTGTAGTT	0.03
CGAAGCACGTGGGGAT	-0.18
GTTATCACGTGGCTAA	0.22
TAACGCACGTGGTGGA	-0.11
TTCGGCACGTGGGGTC	-0.1
GTGCTCACGTGGTATG	0.2
GATAGCACGTGGGAGC	-0.07
TGTATCACGTGGGGGA	-0.07
GTATGCACGTGGTTGA	-0.04
AATATCACGTGAATAT	0.49
AGTGTCACGTGGTGGT	-0.02
TTTTGCACGTGGGTGA	-0.05
CAATGCACGTGTGGGT	0.08
GGGTACACGTGTAATG	0.25
TTTGTCACGTGTCTGG	0.14
TTGGGCACGTGGTCGG	-0.04
ACACGCACGTGGGGTT	-0.25
TTATGCACGTGGGTTA	-0.15
ATAGGCACGTGTGGAA	-0.1
AGGATCACGTGGAGAT	0.11
GGGGTCACGTGACAGT	0.29
TAAGGCACGTGCGTGT	-0.14
CGTAACACGTGGTAGG	-0.07

Sequence	relative binding free energy [kcal/mol]
GTTTCCACGTGTATGG	0.18
TGGTTCACGTGGGGTG	0.22
GGTAACACGTGAAGGG	0.37
ATAGTCACGTGGAGAT	0.14
TAAGGCACGTGTTTCA	-0.03
TTAGTCACGTGTATAA	0.06
GGCTTCACGTGTCGTG	0.2
TGGTGCACGTGCTGAC	0.09
GGTAGCACGTGTCTGG	0.09
TTAGTCACGTGTTTGG	0.12
TTATACACGTGTATGA	0.07
AAAGACACGTGATTTT	0.21
TTTATCACGTGTGGTG	0.19
TGGTGCACGTGGGGGA	-0.19
CTGTTCACGTGAGTAT	0.45
GTTTTCACGTGCGCTT	0.18
TTGTCCACGTGGTAAT	0.08
GCGGGCACGTGAAGTT	0.18
ATTGACACGTGGTCGT	-0.29
AGTGGCACGTGTGCTG	-0.27
CTGTTCACGTGGCGAG	0.23
GCGGGCACGTGGGAGG	-0.16
ATAGTCACGTGTGCGT	0.21
